The source of these data is publication PMC4336329 (PLoS ONE, 2015).

In all, about 310,000 compounds went through this assay and about 14,000 (4.5%) showed an effect of 50% or more. Effects have a minus sign here. The list shows a part of the results.
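Note: peak tail current of the secondary pulse compared with the same well before compound.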

This experiment deals with human ether-à-go-go-related gene (hERG) potassium channel (human, UniProt Q12809). The experiment can be described thus: primary screen, population patch clamp on CHO cells stably expressing hERG.
human ether-à-go-go-related gene (hERG) potassium channel, sequence (Q12809 whole entry, looked up): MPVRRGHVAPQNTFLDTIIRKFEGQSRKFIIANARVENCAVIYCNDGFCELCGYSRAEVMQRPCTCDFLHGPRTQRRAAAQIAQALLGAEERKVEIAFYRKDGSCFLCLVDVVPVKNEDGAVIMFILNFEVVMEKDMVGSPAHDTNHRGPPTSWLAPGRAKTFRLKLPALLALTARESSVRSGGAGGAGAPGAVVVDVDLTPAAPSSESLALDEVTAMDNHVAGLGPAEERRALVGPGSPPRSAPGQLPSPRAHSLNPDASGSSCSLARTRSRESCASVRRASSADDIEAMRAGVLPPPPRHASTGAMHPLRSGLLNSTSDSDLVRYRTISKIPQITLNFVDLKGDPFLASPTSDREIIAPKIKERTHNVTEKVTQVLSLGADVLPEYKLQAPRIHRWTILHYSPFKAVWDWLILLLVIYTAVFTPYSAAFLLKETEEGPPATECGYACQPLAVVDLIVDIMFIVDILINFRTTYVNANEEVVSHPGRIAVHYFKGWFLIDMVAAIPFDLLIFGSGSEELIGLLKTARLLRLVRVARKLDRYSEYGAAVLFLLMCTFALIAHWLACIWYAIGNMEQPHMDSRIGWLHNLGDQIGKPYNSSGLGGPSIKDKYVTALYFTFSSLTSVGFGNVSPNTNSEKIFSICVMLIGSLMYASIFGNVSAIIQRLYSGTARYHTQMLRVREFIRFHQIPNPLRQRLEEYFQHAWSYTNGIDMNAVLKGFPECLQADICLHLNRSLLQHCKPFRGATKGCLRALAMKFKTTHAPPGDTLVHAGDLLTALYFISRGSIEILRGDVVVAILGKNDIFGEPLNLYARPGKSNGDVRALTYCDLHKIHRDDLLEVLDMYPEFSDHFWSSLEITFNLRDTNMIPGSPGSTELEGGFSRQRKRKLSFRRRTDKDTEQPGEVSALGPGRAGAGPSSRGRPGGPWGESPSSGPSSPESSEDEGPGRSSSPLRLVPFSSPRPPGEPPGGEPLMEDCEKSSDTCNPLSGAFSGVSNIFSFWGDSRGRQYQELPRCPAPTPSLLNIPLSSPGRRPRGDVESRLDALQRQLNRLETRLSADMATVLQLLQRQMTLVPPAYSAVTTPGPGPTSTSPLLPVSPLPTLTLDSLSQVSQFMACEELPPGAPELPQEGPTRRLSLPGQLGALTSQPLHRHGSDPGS
In the case of `CC(C)c1ccc(C2c3[nH]c4ccccc4c3C[C@H]3C(=O)N(c4ccccc4C(=O)N4CCC(C(=O)O)CC4)C(=O)N23)cc1` (some centres unmarked), the “hERG current change (%, negative = inhibition) at 10uM” value is given as 3.23%.
To `NC(=O)N/N=C/c1ccccc1OC(=O)c1cc2ccccc2oc1=O` belongs 12.5%; to `Cc1cccc(N2CC(C(=O)OCC(=O)c3ccc(OC(=O)c4cccs4)cc3)CC2=O)c1C` (centres unmarked), 0.31%; to `Cc1ccc2cc(CN(C(=O)c3ccco3)c3ccccc3)c(=O)[nH]c2c1`, 13.8%.
Under `CCN(C(=O)c1cccs1)c1nc(-c2ccc(OC)cc2)cs1` stands 23.1%; under `CC(=O)C1=C(O)CC(C)(C)CC1=NCc1nc2ccccc2[nH]1`, 8.14%.
Under `O=c1c2cccc3c2c(nn1-c1ccccc1)-c1ccccc1-3` stands 12.2%; under `C/C(=N/NC(N)=S)c1ccc(Br)s1`, 16.8%; under `O=C(CSc1ccc2nnc(-c3ccc(F)cc3)n2n1)NCc1ccco1`, -21.7%.
`Cc1ccc(OCC(=O)NCCCNC(=O)c2ccncc2)cc1C`: the “hERG current change (%, negative = inhibition) at 10uM” value is given as -11.5%.
To `Nc1cccc(C(=O)NCCNC(=O)c2cccc(N)c2)c1` belongs -19.7%; to `CC(NC(=O)Cn1cccc1)c1ccccc1` (centres unmarked), 25.9%; to `COc1cccc2c(Cl)c(CCCl)c(C)nc12`, 10.2%.
To `COC(=O)C1=CO[C@H](C)[C@H]2CN3CC[C@@]4(C(=O)Nc5ccccc54)[C@@H]3C[C@H]12` belongs 0.236%; to `CC(=O)NCCC(=O)N1CCCC(N2CCN(c3cccc(Cl)c3)CC2)C1` (centres unmarked), 2.11%; to `CC1(C)CC(=O)c2c(S(C)(=O)=O)sc(Br)c2C1`, 6.05%.
Take `CC1=Nn2c(nc(-c3ccccc3)c2-c2ccccc2)N(CC(N)=O)C(=O)C1`: the “hERG current change (%, negative = inhibition) at 10uM” value worked out at 1.9%.
As to `FC(F)Oc1ccc(-c2c[n+]3c(n2-c2ccccc2)CCCCC3)cc1`, the “hERG current change (%, negative = inhibition) at 10uM” value is recorded as -70.3%.
On to `COc1ccc(N2CCN(C(=O)CCNS(=O)(=O)c3ccc4c(c3)CCC(=O)N4)CC2)cc1`, for which the “hERG current change (%, negative = inhibition) at 10uM” value is -9.76%.
To `CCc1c(C(=O)N/N=C/c2ccc(C)o2)csc1C` belongs -6.62%; to `CC(=O)C1=C(O)C(=O)N(CCCCCC(=O)O)C1c1ccc(N(C)C)cc1` (centres unmarked), 21.4%.
As for `O=C(c1ccc([N+](=O)[O-])cc1[N+](=O)[O-])N1CCCC1`, the “hERG current change (%, negative = inhibition) at 10uM” value is reported as 5.62%.
Under `O=S(=O)(CCOc1ccccc1)N1CCOCC1` stands 15.7%; under `COc1ccc(-c2csc3ncnc(N4CCN(S(=O)(=O)c5cccs5)CC4)c23)cc1`, -8.27%; under `O=C(Nc1nc(-c2ccccn2)cs1)C1CC1`, 17.3%.
`Cc1cc(OCc2cc(C(=O)N3CCC(Oc4cccnc4)CC3)no2)cc(C)c1Cl`: the “hERG current change (%, negative = inhibition) at 10uM” value is on record as 9.06%.
As for `CC(CCc1ccccc1)NS(=O)(=O)c1ccccc1` (centres unmarked), the “hERG current change (%, negative = inhibition) at 10uM” value is -8.87%.
To `Cc1ccc(S(=O)(=O)NC2(C(F)(F)F)NC(=O)N(Cc3ccccc3)C2=O)cc1` (centres unmarked) belongs 9.44%; to `Cc1cccc(NC(=O)Nc2ccc(S(N)(=O)=O)cc2)c1`, 13.4%; to `CCc1ccc(-c2csc3ncn(CC(=O)NCc4ccco4)c(=O)c23)cc1`, -4.39%.
Regarding `CC(=O)c1ccccc1NC(=O)COC(=O)c1ccc2c(c1)nc(C)n2-c1ccccc1`, the “hERG current change (%, negative = inhibition) at 10uM” value amounted to 13.1%.
To `N#CCSc1nc2cc(C(=O)N3CCC(C(N)=O)CC3)ccc2c2nc3ccccc3n12` belongs -4.46%; to `CN(Cc1ccco1)C(=O)Cn1ncc2c([nH]c3ccccc32)c1=O`, -10.7%.
For `COc1ccc2[nH]c(=O)c(-c3nnn(-c4ccc(F)cc4)n3)cc2c1`, the “hERG current change (%, negative = inhibition) at 10uM” value was -7.65%.
Turning to `CCN(CC)c1ccc(/C=C/C(=O)c2ccc(Br)cc2)cc1`, the “hERG current change (%, negative = inhibition) at 10uM” value is 25.4%.
Turning to `COc1ccc(OC)c(N/C(=N/c2nc(C)cc(C)n2)NC(C)=O)c1`, the “hERG current change (%, negative = inhibition) at 10uM” value was 14.5%.
Take `COc1ccc(-c2cc(=O)oc3c(C)c(O)ccc23)cc1`: the “hERG current change (%, negative = inhibition) at 10uM” value amounted to 19.6%.
For `CCC(=O)NC(c1cccs1)c1cc(Cl)c2cccnc2c1O` (centres unmarked), the “hERG current change (%, negative = inhibition) at 10uM” value was -2.87%.
On to `CN(c1ccccc1)S(=O)(=O)c1ccc(C(=O)Nc2nnc(-c3ccc(F)cc3)o2)cc1`, for which the “hERG current change (%, negative = inhibition) at 10uM” value amounted to 1.12%.
Under `CSc1nc2nc3c(cc2c(=O)n1-c1ccc(C)cc1)COC(C)(C)C3` stands -7.7%; under `O=C(C(Cc1ccc(Cl)cc1)NS(=O)(=O)c1ccccc1)N1CC[C@@]2(O)CCCC[C@H]2C1` (some centres unmarked), -39.6%; under `COc1ccc(CNC(=S)Nc2ccc(F)c(Cl)c2)cc1`, 19.4%.
To `Cc1cc(C)c(NC(=S)NC(=O)c2c(Cl)c(C)nn2C)c([N+](=O)[O-])c1` belongs 12.2%.
To `COc1cccc2c1Oc1ncccc1N(C(=O)CCC(=O)NCc1ccccc1)C2` belongs -11.6%; to `COC(=O)CSc1nnc(CNC(=O)c2ccccc2OC)n1-c1ccc(OC)cc1`, -14.3%; to `CCOc1ccc(NC(=O)c2ccccc2C(=O)c2ccccc2)cc1OCC`, 12.1%.
Turning to `Cc1nn(CC(=O)Nc2ccc(C(C)C)cc2)c(C)c1[N+](=O)[O-]`, the “hERG current change (%, negative = inhibition) at 10uM” value came to 5.83%.
To `Cc1ccc(/C=C/C(=O)c2c(C)nc3ccccn23)cc1` belongs -16%; to `CC(NC(=O)C12CC3CC(C1)CC(n1cncn1)(C3)C2)C12CC3CC(CC(C3)C1)C2` (centres unmarked), -61.9%.
With `COc1ccc(-c2cc(-c3ccccc3)c(C#N)c(=S)[nH]2)cc1`, the “hERG current change (%, negative = inhibition) at 10uM” value was determined as 18.4%.
On to `COc1ccc(C2NC(=O)NC(C)=C2[N+](=O)[O-])cc1` (centres unmarked), for which the “hERG current change (%, negative = inhibition) at 10uM” value is on record as -2.26%.
Under `NC(=O)c1c(/N=C/c2cccnc2)sc2c1CCCC2` stands 18.7%.
With `CC1(C)CC(=O)C(C=NCCCN2CCOCC2)=C(O)C1`, the “hERG current change (%, negative = inhibition) at 10uM” value is listed as 10.1%.
For `O=C1NC(=O)/C(=C\c2ccc(OCc3ccccc3)cc2)S1`, the “hERG current change (%, negative = inhibition) at 10uM” value is reported as 13.5%.
In the case of `COc1ccc(/C=C2/SC(=O)N(CCC(=O)Nc3ccccc3)C2=O)cc1OC`, the “hERG current change (%, negative = inhibition) at 10uM” value worked out at 6.79%.
In the case of `Cl.O.O=c1c2ccccc2nc2n1CC/C2=C/N1CCN(c2cccc(C(F)(F)F)c2)CC1`, the “hERG current change (%, negative = inhibition) at 10uM” value is -28%.
As for `CNc1nc2ccccc2n1N`, the “hERG current change (%, negative = inhibition) at 10uM” value is given as -3.79%.
To `COc1cccc(NC(=O)CCNC(=O)N2CC(=O)Nc3ccccc32)c1` belongs 18.9%.
To `COc1ccc(C(=O)N(C)Cc2nc3ccccc3c(=O)[nH]2)cc1S(=O)(=O)N1CCCC1` belongs -13.2%.
Regarding `[O-][Cl+3]([O-])([O-])[O-].c1ccc(-c2cc(-c3ccccc3)[n+](-c3ccccc3)c(-c3ccccc3)c2)cc1`, the “hERG current change (%, negative = inhibition) at 10uM” value was -71.3%.
Take `CCc1nnc(NC(=O)c2ccc(Cl)nc2)s1`: the “hERG current change (%, negative = inhibition) at 10uM” value is listed as 9.78%.
For the compound `CCn1c(SCC(N)=O)nc2cc(S(=O)(=O)N3CCOCC3)ccc21`, the “hERG current change (%, negative = inhibition) at 10uM” value is given as -15.3%.
Under `COC(=O)c1ccccc1-c1ccc(C=O)o1` stands 25.3%; under `Clc1cccc(-c2cc3nc4c(c(N5CCN(c6cnccn6)CC5)n3n2)CCCC4)c1`, 1.15%; under `O=C(Nc1cccnc1)c1ccc(S(=O)(=O)c2ccc(Cl)cc2)cc1`, -14%.
Regarding `COc1ccc(-c2cc(N)n(CCC#N)n2)c(OC)c1`, the “hERG current change (%, negative = inhibition) at 10uM” value is 4.12%.
Under `CSc1cccc(NC(=S)N(Cc2ccc(C)cc2)Cc2ccccn2)c1` stands -4.75%; under `O=C(O)c1ccc(CSCc2ccccc2Cl)o1`, 20.5%; under `O=C(CN1CCN(S(=O)(=O)c2ccccc2)CC1)N1CCCCC1`, 10.8%.
On to `CC(C)CN(C(=O)CN1CCN(S(=O)(=O)c2ccc3ccccc3c2)CC1)c1c(N)n(CC(C)C)c(=O)[nH]c1=O`, for which the “hERG current change (%, negative = inhibition) at 10uM” value stood at 11.5%.
For `COc1ccc(CN2CCN(Cc3ccc(C(F)(F)F)cc3)CC2)c(OC)c1.O=C(O)C(=O)O`, the “hERG current change (%, negative = inhibition) at 10uM” value is given as -74.1%.
Turning to `O=C(c1ccc(Cl)cc1)C1CCCN(Cc2ccon2)C1` (centres unmarked), the “hERG current change (%, negative = inhibition) at 10uM” value is -18%.
`O=C(Cc1c(F)cccc1Cl)Nc1ccc(-n2cnnn2)cc1`: the “hERG current change (%, negative = inhibition) at 10uM” value was -3.19%.
In the case of `O=C(NC(=S)NCCOCc1ccc(Cl)cc1)c1cccnc1`, the “hERG current change (%, negative = inhibition) at 10uM” value is on record as -26.8%.
`COc1ccc(OC)c(C2=NOC(C(=O)Nc3cccnc3)C2)c1` (centres unmarked): the “hERG current change (%, negative = inhibition) at 10uM” value is listed as -9.42%.
Take `CCC(=O)Nc1ccc(C(=O)NNC(=O)c2cc([N+](=O)[O-])cc([N+](=O)[O-])c2)cc1`: the “hERG current change (%, negative = inhibition) at 10uM” value is recorded as 12.7%.
To `CCN(CC(=O)Nc1c(F)cccc1F)C(=O)c1cccc(S(=O)(=O)N2CCc3ccccc3C2)c1` belongs -20%.
`CCOc1ccc(C(=O)N2CCC(C(=O)c3ccc4c(c3)OCCO4)CC2)cc1`: the “hERG current change (%, negative = inhibition) at 10uM” value is -75.7%.
Consider `O=C(Nc1ccc(S(=O)(=O)N2CCCC2)cc1)N1c2ccccc2Sc2ccccc21`, for which the “hERG current change (%, negative = inhibition) at 10uM” value is reported as 47.3%.
Under `N#Cc1c2c(c(NCc3ccco3)n3c1nc1ccccc13)CCC2` stands 6.77%; under `OCCCNc1nccc(-c2cc(Nc3cccc(Cl)c3)ncn2)n1`, 9.69%.
To `COC(=O)CC1C(=O)NC(C)=C1C(=O)OC` (centres unmarked) belongs 13%; to `O=C(CSc1nnc(-c2cccs2)o1)c1cccs1`, -10.1%; to `CCN(Cc1ccccc1)C(=O)c1ccc(C(=O)N(CC)Cc2ccccc2)cc1`, 5.22%.
With `O=C(CSc1ccccc1)NCC1(N2CCCCC2)CCCCC1`, the “hERG current change (%, negative = inhibition) at 10uM” value was -0.798%.
On to `Cc1nn(CC(C)C)c(Cl)c1C(=O)O`, for which the “hERG current change (%, negative = inhibition) at 10uM” value is on record as 14.1%.
